Over roughly 2,700 sequences, “arbitrary fluorescence units” has its median near 4,100; the highest 2% begin near 54,000. The list shows a part of the results.

This experiment deals with T1, ETS1 (UniProt P14921).
T1 sequence: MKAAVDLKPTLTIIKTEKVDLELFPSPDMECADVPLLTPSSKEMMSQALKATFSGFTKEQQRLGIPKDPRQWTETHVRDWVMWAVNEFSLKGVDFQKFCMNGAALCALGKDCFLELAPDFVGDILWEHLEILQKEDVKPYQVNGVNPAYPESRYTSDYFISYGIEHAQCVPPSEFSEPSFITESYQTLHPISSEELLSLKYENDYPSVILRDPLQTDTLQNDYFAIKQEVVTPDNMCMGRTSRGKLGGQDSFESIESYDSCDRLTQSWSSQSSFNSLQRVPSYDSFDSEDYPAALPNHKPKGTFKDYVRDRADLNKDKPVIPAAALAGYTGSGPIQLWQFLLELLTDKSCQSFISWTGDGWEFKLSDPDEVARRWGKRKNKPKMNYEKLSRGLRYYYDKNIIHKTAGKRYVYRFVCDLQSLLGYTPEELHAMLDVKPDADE
The experiment is described as follows: ETS1 binding intensity (PBM fluorescence) (arbitrary fluorescence units); higher = stronger binding. The following applies: ETS1 concentration 10 nM. Here is the method: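 gcPBM on wild-type 36-bp genomic probes with two neighbouring ETS1 sites (4-24 bp apart). Recombinant human ETS1 (10 nM) was detected with anti-ETS1 antibody fluorescence. Values are medians over 3 replicate spots. The probes sit in constant array flanks that are not printed.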
In the case of TGCGGACTTCCCCAAACCCAGCTATTTCCTGTCCCT, the ETS1 binding intensity came to 6580.
The figure for CGCGGACCTCTTCCCGTTGCTCTTCCTCCCGCCACA is 1890.
The figure for ACATTACGGCGGAAGGCTCTGGAGGAAGCAGAAGTG is 232.
With ACGTGCATCATGGCTTCCTTCCTGTCCCCACACCTG the figure was 3520.
In the case of CGACTCAGCGCTTCCGGGGAGCGGAAGGGGGAGCGC, the ETS1 binding intensity was found to be 17700.
The figure for GCCTCCGGGAGGAAGTGGCCAAGTTCCTGTCTTTCT is 7460; for CCTACAGGCCACTTCCTGCAGGAAGTGTCTCTCCAG it is 17200; for TGGTCAGGAAGCTGTTTATCAAGCTGGGGAAGTCTG it is 319.
With GACCGGTGAGCAGGATGTTCGGAAGCAACATGGTCC the figure was 1880; with CGCCGCCGGAAGTGCCTGGCCTCACTTCCGGTCAGA, 37200.
With CGGCGCCGGGACAGGAAGCGGAAAGCAGCAGTGCAG, the ETS1 binding intensity came out at 6720.
The figure for GCGCCACAGGAAGAGTGGAGAACAGGAAGCTGAGGG is 2230.
The figure for GGCCTGTGTGGTTTCCTGCATTTCCGGCAGCTGATC is 18300.
With AAGTCAGGAAACAACAGATGCTGGAGAGGATGTGGT the figure was 375; with GACTCATTTCCCAGCAACTCCGGGTTTCCTGTAGCC, 883.
In the case of CGCCCCTTTCCGGGGACGTTTCACCGGATTGGCTGT, the ETS1 binding intensity was 5040.
The sequence GATGACCTGCCATTTCCCCAGGAAAGCTGAGACCCC gave an ETS1 binding intensity of 201.
With CGAAAGTGGCGTTTCCCGCAGTTCCGGCGGGAGAGC the figure was 1510.
With TAAACAGCTCTTTTTCCGTTTCCTGATATTGACATA the figure was 1690.
With AATTATTTCCGCTCCTGCACCTCAGTTTCCGCCTCT the figure was 35000.
Sequence CTCGCCGGAAATGCGGGCTCTCCTGCCGGAAGCTGC had an ETS1 binding intensity of 11900.
The sequence ACTCACATCCTGTGCGGGAGGGAGCAGGATGGCACG registered an ETS1 binding intensity of 36200.
The figure for ACAGGTTTGTAGGAAGCGGCATTTCCCAAAAGCAAC is 213.
The figure for TTCACTTTATCCTGTCCAAAGCAGATCCTGTTTTGG is 1260.
With CGCGGAGGCCGCTTCCTCTCAGGATGAGGTGGAGAA the figure was 3020.
In turn, CGCGCCGGAAGTGCCTTGCGCGGCAGAGGAAGCGCA gave an ETS1 binding intensity of 23300.
Sequence AAGCCTGAGACAGGAAGGGAGGAAGCCGAGGTGGCA yielded an ETS1 binding intensity of 1260.
The figure for CTGGCAGGAAATGAAAGTGAAGGGCAGGAAGGGGCA is 7980; for GGCGGCATCTCGGAAATGCCCGGATGAGACTGCTAA it is 352.
The figure for ACCTTCTTCCGGACTTGCTGCAGGACGGAAGCCGCT is 16500.
Sequence GCCAGCAAAGGAGGAAGCCCCTTCCGTCGCTCCCAG came in with an ETS1 binding intensity of 842.
The figure for TCCCAGGATGCCGTGCACCTTTACCTCAGGATGCGA is 187; for CTCATGGCAGTTTCCTCCCACATCCTGCTCAGTAGC it is 5180.
With AAGTACAGGATGCTAGGTGATGCCACATCCTGTTAC the figure was 4980.
AGCTGTCCTTCCGCATGCTCCAAACTTCCTCCTTTG had an ETS1 binding intensity of 2330.
As to CCAGCAACAGGAAGAGCGACAAACTTCCTTGCATCT, the ETS1 binding intensity was 5050.
Sequence ATGAGCAGGAAGTAGCAAATGCTTCGGATGCCTTCT had an ETS1 binding intensity of 6980.
The figure for GCTTCGCGGTGCCCGGAAGGAAGCCTTTGAAGAGTA is 925; for ACACTGCTTTTCCTGGTAACTTACTTCCTCCATAGT it is 1430.
The figure for GAGAACCGGATGAGGGCTTCACATGAGGAAGCATGT is 7690; for TGGGCTTGCTCACTTCCTCTTCCTGTCGGCTGCAGT it is 10400.
Regarding TGAACCAGGAAGCGGAGTGGCGGGGCTTCCGGCGCC, the ETS1 binding intensity amounted to 3690.
With TAAGAATGCTTATTTCCTGTTTCCTGGGGCCTACAC the figure was 23800; with TCAGATGAGGAAGTGGGCTGGGGAGGAAGAGGCAGA, 1110; with TTCCACGGAAACGGCTTTGGCACCACCGGAAGTCAG, 5660.
The figure for GGGCTCACTTCCTCCTTTTCAGGCAGGAAAAGCAGA is 16800.
For the sequence TGTGATGTTTCCTCTTGCTGTGGTTTCCTGTCATGG, the ETS1 binding intensity stood at 4090.
The sequence ACACAGGAAAGCAGATGTGTTCTGGCCGGAAGTTGA returned an ETS1 binding intensity of 2410.
The figure for ACATGCCCCACGGGATGTAGGGATGTGTGTGAACTG is 172.
With TGCATAATTCTTCCTGTCAGATTTCCTTTTCTGTAA the figure was 5410; with CCCGGCGGCGACGGAAAATCTTCCGGACGACCGGCA, 267.
As for TGTTTTCCTGGGGAGTTCACACTGATGAGGATGTGC, the ETS1 binding intensity is 1920.
The figure for AAAGAAAACAGGATGGGCAGCCAGGAAGATTTTTTT is 460; for GCTGCAATGATTTCCTCTGTGTTTCCTTTGGCTACA it is 3440; for GCCTGGTACTTCCCAGCTACTCAGGAAGCTGAGGTG it is 433.
As for GCGAACACGTCGGAACAGTGACTTCCGGCGGAAGAA, the ETS1 binding intensity is 12700.
CCTCCGGAAGTAGTGGGTTCCCATGGCCGGAAGTGT showed an ETS1 binding intensity of 17300.
With ATTTTGCAGAGGAGGAAACGGAAATTCAGAGAAGTA the figure was 819; with TCTGAAGACAGGAAGCTGCCTCAGGAAGCAATGATC, 6380.
With TCACTTCCCCTGAAGCTTATTTTGCCTCTTCCTGTG the figure was 8490; with GAGGTGCGGATAGGGACTCTTTACCGGAAGTCGGAG, 4550.
The figure for TGTAATCACAGGAAGTTGAACAGGATGTGAGGAGAT is 7760.
